Data reported in publication PMC4336329 (PLoS ONE, 2015).
The campaign covered roughly 310,000 compounds. About 2,200 (0.71%) showed an effect of 50% or more. Effects have a minus sign here. Some of the results follow.

biological target: human ether-à-go-go-related gene (hERG) potassium channel (human, UniProt Q12809); assay: primary screen, population patch clamp on CHO cells stably expressing hERG
Sequence (Q12809 whole entry, looked up): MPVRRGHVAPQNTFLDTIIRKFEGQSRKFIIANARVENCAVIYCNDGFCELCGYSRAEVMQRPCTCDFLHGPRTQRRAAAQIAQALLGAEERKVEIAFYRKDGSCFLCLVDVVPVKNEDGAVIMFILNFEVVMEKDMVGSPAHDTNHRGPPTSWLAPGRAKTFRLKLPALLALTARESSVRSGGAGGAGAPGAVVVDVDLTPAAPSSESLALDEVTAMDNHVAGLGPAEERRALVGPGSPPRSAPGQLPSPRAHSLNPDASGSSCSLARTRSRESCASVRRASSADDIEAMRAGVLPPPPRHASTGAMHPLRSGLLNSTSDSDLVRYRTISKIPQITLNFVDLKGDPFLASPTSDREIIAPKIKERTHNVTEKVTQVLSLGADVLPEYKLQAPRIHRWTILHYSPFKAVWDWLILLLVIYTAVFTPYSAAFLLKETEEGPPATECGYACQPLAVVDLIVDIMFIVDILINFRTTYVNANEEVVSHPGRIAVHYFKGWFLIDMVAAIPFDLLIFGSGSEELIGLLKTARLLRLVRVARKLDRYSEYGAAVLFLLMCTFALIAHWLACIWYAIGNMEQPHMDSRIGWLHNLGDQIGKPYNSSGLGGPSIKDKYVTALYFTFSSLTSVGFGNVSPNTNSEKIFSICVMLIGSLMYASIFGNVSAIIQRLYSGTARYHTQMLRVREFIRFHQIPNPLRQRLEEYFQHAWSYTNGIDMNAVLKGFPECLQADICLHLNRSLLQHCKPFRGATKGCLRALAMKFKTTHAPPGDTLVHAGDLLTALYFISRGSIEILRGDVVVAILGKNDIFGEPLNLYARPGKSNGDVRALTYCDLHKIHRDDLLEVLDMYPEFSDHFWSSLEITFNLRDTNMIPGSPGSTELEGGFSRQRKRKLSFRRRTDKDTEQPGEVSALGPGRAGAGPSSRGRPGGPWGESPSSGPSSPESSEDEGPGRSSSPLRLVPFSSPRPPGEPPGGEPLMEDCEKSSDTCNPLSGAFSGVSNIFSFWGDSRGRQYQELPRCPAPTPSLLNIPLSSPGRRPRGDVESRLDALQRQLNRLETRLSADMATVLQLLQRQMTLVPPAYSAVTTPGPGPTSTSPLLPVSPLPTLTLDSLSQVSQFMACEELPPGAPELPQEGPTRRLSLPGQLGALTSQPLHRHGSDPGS

Structure (SMILES)	hERG current change (%, negative = inhibition) at 1uM [%]
CCN(C(=O)/C=C/c1ccc(OC)cc1)C1CCS(=O)(=O)C1 (stereo not drawn)	-3.05
O=C(CCN1C(=O)c2ccccc2C1=O)N1CCOCC1	8.12
Cc1ccc(-c2cc(-c3ccc(C)cc3O)[nH]n2)cc1	9.69
COc1cc(CNCc2ccccn2)ccc1OCC(N)=O.Cl	4.11
CCc1ccccc1NC(=O)C1CCCN(c2ncnc3onc(-c4ccc(F)cc4)c23)C1 (stereo not drawn)	19.3
COc1cccc(CC(=O)Nc2nc(-c3ccc(F)c(F)c3)cs2)c1	6.25
N#Cc1c(-c2ccc3c(c2)OCO3)cc[nH]c1=O	9.68
Cc1nc2cc(NC(=O)COc3ccccc3C#N)ccc2n1-c1ccccc1	2.55
CCOC(=O)C1=C(N)Oc2cc(C)oc(=O)c2C12C(=O)N1c3c(cc(OC)cc32)C(C)=CC1(C)C (stereo not drawn)	18.3
Cc1nnc(SCCCCSc2nnc(C)c(=O)[nH]2)[nH]c1=O	8.72
C[n+]1ccc(-c2ccccc2)c2ccccc21.[O-][Cl+3]([O-])([O-])[O-]	16.8
COc1ccc(NC(=O)CN2CC(c3ccccc3)CC2=O)cc1OC (stereo not drawn)	12.3
CCCCC(=O)Nc1ccc(NC(=O)c2cccnc2)cn1	4.2
CCS(=O)(=O)N1CCN(c2ccccc2)CC1	7.1
Cc1cccnc1NC(=O)c1csnn1	8.96
O=C(c1cc(-c2ccccn2)nc2c(Cl)cccc12)N1CCN(C(=O)C2CCCO2)CC1 (stereo not drawn)	-3.08
Cc1cc(OCCOCCNCc2ccccc2)ccc1C(C)C.O=C(O)C(=O)O	18.8
COc1nc(OC)nc(N2CCC(C(=O)Nc3cccc4ccccc34)CC2)n1	4.24
COc1ccccc1CC(=O)NCCc1c[nH]c2ccccc12	11.7
CC1=C(C(=O)OCc2ccccc2)N2C(=O)[C@@H](NC(=O)COc3ccccc3)[C@H]2SC1	-4.75
NC1=NC(c2ccccc2)=NC1(NC(=O)c1ccccc1)C(Cl)Cl (stereo not drawn)	15.1
CCCCn1cnc2c([nH]c3cc(OC)ccc32)c1=O	6.65
CCOC(=O)Cn1c(=O)oc2cc(S(=O)(=O)N(C)Cc3ccco3)ccc21	13.3

Structure (SMILES)	hERG current change (%, negative = inhibition) at 1uM [%]
O=c1cc(CN2CCN(S(=O)(=O)c3ccccc3)CC2)nc2ccc(Cl)cn12	-3.74
Cc1ccc(S(=O)(=O)N2CCN(C(=O)C3CCCCC3)CC2)cc1	1.49
O=C1CC(N2CCCCCC2)C(=O)N1c1ccc2c(c1)OCO2 (stereo not drawn)	0.811
c1ccc(-c2nnc(SCC3CCCO3)nc2-c2ccccc2)cc1 (stereo not drawn)	2.16
Cc1ccc(NC(=O)c2ccc(OC(=O)COc3ccc(Cl)cc3C)cc2)cc1	5.53
O=C(NCc1ccc(Cl)cc1)NCc1ccc(Cl)cc1	17.6
Cc1ccc(C)c(NS(=O)(=O)c2cc(C(=O)NCc3ccccn3)ccc2Cl)c1	-2.78
Cc1nc(CC(=O)c2ccc(O)cc2O)cs1	13
COC(=O)CSc1nnc(CSc2nc(C)cc(C)n2)n1Cc1ccco1	11.5
Cc1csc(NC(=O)c2ccccc2C(=O)O)n1	5.16
O=C(NCc1ccncc1)c1cccc(F)c1	5.07
Cc1nc(SCC(=O)NCC2CCCO2)c2c3c(sc2n1)CCCC3 (stereo not drawn)	8.09
O=S(=O)(Nc1c(S(=O)(=O)c2ccccc2)c2nc3ccccc3nc2n1C1CCCCC1)c1ccccc1	1.17
S=C1NCN(Cc2cccnc2)CN1	14
CC(=O)c1ccccc1OC(=O)COc1ccc(Cl)cc1C	13
CCO.CSc1sc(C)cc1C1C(C#N)=C(N)N(c2cccnc2)C2=C1C(=O)CC(C)(C)C2 (stereo not drawn)	-4.33
COc1cccc(-c2nnc(SCC(=O)Nc3ccc(S(N)(=O)=O)cc3)n2C)c1	-2.58
O=C(CN(Cc1ccccc1Cl)C(=O)CNS(=O)(=O)c1ccc(F)cc1)NCC1CCCO1 (stereo not drawn)	10.3
Cc1ccc(S(=O)(=O)NCC(=O)OCC(=O)NCc2ccc(F)cc2)cc1	10.3
CCOc1cc(/C=N/NC(=O)C(=O)NCC2CCCO2)ccc1OCC(=O)N1CCOCC1 (stereo not drawn)	-0.555
Cc1cc(C)n2c(nc3ccccc32)c1C(=O)NN	7.47
CCOC(=O)CSc1ncc(OC)c(Sc2ccc(Cl)cc2)n1	9.53
CCNS(=O)(=O)c1ccc(NC(=O)c2cncc(Br)c2)cc1	12

Structure (SMILES)	hERG current change (%, negative = inhibition) at 1uM [%]
COc1ccc([C@H]2CC(=O)C=C(c3cccc(CO)c3)C2)cc1OC	-18.9
COC(=O)c1ccccc1C(=O)N1CC(O)CO1 (stereo not drawn)	7.4
Cc1cc(C)c2nc(N3CCC(C(=O)NCCCN4CC(C)CC(C)C4)CC3)sc2c1 (stereo not drawn)	-32.6
CC(C)[C@H](NC(=O)[C@@H]1CSC2c3ccccc3C(=O)N21)C(=O)N1CCCCC1 (stereo partly drawn)	8.78
CCOC(=O)CSCC(=O)Nc1nnc(-c2cccc([N+](=O)[O-])c2)s1	-1.37
Cc1occc(=O)c1OCc1ccccc1	8.23
CCCNC(=O)C(CC)NS(=O)(=O)c1ccc(OC)cc1 (stereo not drawn)	16.1
CCOc1ccc(CCNC(=O)CSc2nn(-c3ccc(C)c(Cl)c3)c(=S)s2)cc1OCC	9.09
COc1ccc(NC(=O)CSc2nc(-c3ccncc3)nn2CC(=O)N2CCCC2)cc1	7.64
Nc1c(NCCc2ccccc2)c2ccccc2oc1=O	11.4
COc1ccccc1Cn1c(CCCO)nc2ccccc21	1.69
O=S(=O)(Nc1cccc(-n2cnnn2)c1)c1ccc(Cl)cc1	16.2
COc1cc2ccccc2cc1C(=O)OCC(=O)N1CCOCC1	13.6
COc1cc(/C=C2\C(=N)N3N=C(S(=O)(=O)CC(C)C)SC3=NC2=O)ccc1OC(=O)c1ccco1	18.3
CC(C)OCCCNC(=O)c1ccc(NC(=O)C2CCCO2)cc1 (stereo not drawn)	4
CCN1CCN(Cc2ccc(NC(=O)c3ccc(C)c(NC(=O)C4=NN(c5ccccc5)C(=O)C4)c3)cc2C(F)(F)F)CC1	8.97
CC(C)NC(=O)Cn1cc(C(=O)c2ccccc2)c2ccccc21	15.5
Cc1ccc(NC(=S)NC2CCN(Cc3ccccc3)CC2)cc1C	5.07
CSC1=NCCN1C(=O)c1ccc(Br)o1	8.83
COCCn1nnnc1SCC(=O)c1ccc(F)cc1	11.2
O=Cc1c(N2CCCCC2)nc2ccccn2c1=O	12.5
CCCCC1CCC(/C(N)=N/O)CC1 (stereo not drawn)	9.78
COc1ccc2nc(N3C(=O)/C(=C/c4ccccc4)NC3=S)sc2c1	-0.531

Structure (SMILES)	hERG current change (%, negative = inhibition) at 1uM [%]
CCOC(=O)c1cn2nc(Oc3cccc(C(F)(F)F)c3)ccc2n1	10.5
Cc1noc(NS(=O)(=O)c2ccc(NC(=O)NC(C)(C(F)(F)F)C(F)(F)F)cc2)c1C	10.8
O=C(NC1CCCCC1)C1CCCN(S(=O)(=O)c2cccc3cccnc23)C1 (stereo not drawn)	-0.44
O=C1CC(C(=O)O)S/C(=N\NC(=O)c2ccccc2)N1 (stereo not drawn)	9.19
COc1ccc(N2C(=O)/C(=C/c3ccc(C)o3)C(=O)NC2=S)c(OC)c1	12.6
Cc1cc(SCn2nnc3ccccc3c2=O)nc2ccccc12	9.54
Cc1cc2ncn(CC3CC3(Cl)Cl)c2cc1C (stereo not drawn)	11.9
CCOc1c(N2CCCCC2)c(=O)c1=O	12.2
Cc1ccc2c(c1)N(CC(=O)N1CCCCC1)C(=O)C(C)O2 (stereo not drawn)	14.6
CCOC(=O)Cc1csc(NC(=O)CSc2nnc(-c3ccncc3)o2)n1	15.4
O=C(O)C#Cc1cccc2ccccc12	16.3
CCn1c(SCC(=O)O)nnc1-c1cccnc1	10.6
O=C(O)c1ccc2c(c1)C(=O)N(c1cccc(-c3nc4ccccc4s3)c1)C2=O	8.68
CCOc1cc(/C=N\NC(=O)c2ccc(NC(=O)C(C)(C)C)cc2)ccc1OC(=O)c1ccc(C)cc1	6.6
Cc1cc(=O)[nH]c2c(C)c(N)ccc12	11.9
CC(C)NC(=O)C1=NN(c2ccccc2)C(=O)CC1	13.6
Cc1cc(C(=O)CSc2n[nH]c(N)n2)c(C)n1-c1cccc(F)c1	1.37
COc1ccc(C(=O)[C@H]2[C@H]3C(=O)N(c4ccccc4)C(=O)[C@H]3C3C=CC=NN32)cc1 (stereo partly drawn)	13.3
CCN(CC)c1ccc(-c2n[nH]c(=S)n2-c2ccccc2C)cc1	9.01
COc1ccccc1N(C(=O)c1ccco1)C(C(=O)NC1CCCCC1)c1cc(OC)c(OC)c(OC)c1 (stereo not drawn)	10.2
Cc1ccc(NC(=O)CCC(=O)OCC(=O)c2ccc(Oc3ccc([N+](=O)[O-])cc3)cc2)cc1	11
